According to PubChem BioAssay AID686979 (National Center for Advancing Translational Sciences (NCATS), 2013):
The whole screen tested about 420,000 compounds, of which about 50,000 (12%) were called active. The shares of active, inactive and inconclusive entries below differ from those in the screen. Calls follow the shape of the dose curve; as a rule, active = well fitted inhibition curve with a large enough effect; inconclusive = small, poorly fitted or top-dose-only effect; inactive = flat fitted curve, though single readings scatter. No potency is given beside an inconclusive call; the fits are too rough.

Test: qHTS for Inhibitors of human tyrosyl-DNA phosphodiesterase 1 (TDP1): qHTS in cells in presence of CPT; also: nearly all actives have a fitted effect of over 55% in size
Conditions: chicken DT40 Tdp1-/-;hTDP1 cells + 20 nM CPT, ATP luminescence, 48 h; activity change, negative = growth inhibition: at 46.2 µM (top of the series)
Method in brief: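 Cell growth measured by CellTiter-Glo luminescence after a minimum 48 h, 37 C compound exposure with 20 nM CPT in Tdp1-knockout DT40 cells stably expressing hTDP1, seeded 400/well; qHTS titration format.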
% is scaled to controls: 0 for no effect and ±100 for the full control effect; potency is read from the fitted curve at half-maximal effect; tags tell the direction and shape of the fitted curve.

With `Cc1[nH]n(C(C)(C)C)c(=O)c1Sc1ccc(Cl)cc1` as the compound, how does the “activity change, negative = growth inhibition” value read?
The value was inactive: -27.8%.

With `CC(SC1=Nc2ccccc2C2CC=NN12)C(=O)NC1(C#N)CCCCC1` (centres undefined) as the compound, how does the Potency read?
The Potency was active: 11.6 µM.

For `Cc1cc(/C=N/NC(=O)c2cccc(N(C)C)c2)c(C)n1-c1cc(C(=O)O)cc(C(=O)O)c1`, which “activity change, negative = growth inhibition” value is on record?
Its value is inactive: 30.7%.

With `COc1cccc(-c2noc(C3CCCN(C(=O)c4ccccc4OC)C3)n2)c1` (centres undefined) as the compound, how does the Potency read?
The Potency was inconclusive [inhibitor, single point].

For `CC(C)(C)c1ccc2c(c1)OC(C(=O)N/N=C\c1ccc[nH]1)CO2` (centres undefined), which Potency is on record?
Its Potency is inconclusive [inhibitor, single point].

With `CCOc1cc(/C=N\NC(=O)Cn2nnc3ccccc32)ccc1O` as the compound, how does the “activity change, negative = growth inhibition” value read?
Its value is inactive: 12%.

With `CC(O)c1nc2ccccc2n1CCCOc1ccccc1` (centres undefined) as the compound, how does the Potency read?
The Potency was inconclusive [inhibitor, single point].

With `COc1cccc(Cn2c(CNS(=O)(=O)c3ccc4c(c3)CCCC4)nc3cccnc32)c1` as the compound, how does the Potency read?
Its Potency is inconclusive [inhibitor, single point].

For `O=C1c2ccc(-c3ccc(F)cc3OCc3ccccc3)cc2S(=O)(=O)c2cccc(C(=O)N3CCN(c4ncc(Br)cn4)CC3)c21`, which Potency is on record?
The Potency was inconclusive [inhibitor, partial curve].

With `Cc1ccc(-c2nc(CS(=O)CC(=O)NCc3ccco3)c(C)o2)cc1` (centres undefined) as the compound, how does the “activity change, negative = growth inhibition” value read?
Its value is inactive: 10.9%.

With `Cc1ccc(NC(=O)c2cccc(S(=O)(=O)N3CCc4ccccc4C3)c2)nc1` as the compound, how does the Potency read?
Its Potency is inconclusive [inhibitor, single point].

With `O=C(Cc1ccc(Cl)cc1)NCC(=O)N1CCCCCC1` as the compound, how does the “activity change, negative = growth inhibition” value read?
Its value is inactive: -10.8%.

For `Cc1nnn(-c2nonc2N)c1C(=O)NNC(=O)c1ccc(Cl)c(Cl)c1`, which Potency is on record?
Its Potency is inconclusive [inhibitor, partial curve].

With `CCOC(=O)COc1cc2c(C(=O)OCC)c(C)oc2cc1Br` as the compound, how does the Potency read?
Its Potency is inconclusive [inhibitor, single point].

Which Potency does the source give for `Cc1csc[n+]1CC(=O)c1ccc(I)cc1` here?
Its Potency is active: 15.8 µM.

With `COc1ccc(Cl)cc1NC(=O)N1CC(=O)Nc2sc3c(c2C1c1ccccc1)CCCC3` (centres undefined) as the compound, how does the Potency read?
Its Potency is inconclusive [inhibitor, single point].

Which Potency does the source give for `Cc1ccc(NC(=O)Cn2c(-c3cncs3)nc3ccccc32)cc1Br` here?
The Potency was inconclusive [inhibitor, single point].

Which Potency does the source give for `CC(C)NC(=O)NC(=O)CSc1nnc(COc2ccccc2F)n1C(C)C1CC2CCC1C2` (centres undefined) here?
Its Potency is active: 10 µM.

Which Potency does the source give for `COc1ccc(C(=O)N2CCN(c3ccc(C)c(C)c3)CC2)cc1OC` here?
Its Potency is inconclusive [inhibitor, partial curve, poor fit].

Which Potency does the source give for `Cc1ccc(C(=O)N2CCCC(CCC(=O)N3CCN(c4ccccn4)CC3)C2)cc1C` (centres undefined) here?
The Potency was inconclusive [inhibitor, single point].

For `CCN(CC)C(=O)CSc1nc2ccccc2c(=O)n1Cc1ccco1`, which Potency is on record?
Its Potency is inconclusive [inhibitor, single point].

Which Potency does the source give for `N#CC1c2ccccc2-c2ccccc2N1C(=O)c1ccccc1` (centres undefined) here?
Its Potency is active: 5.8 µM.

For `CCn1cc(C(=O)NCCc2ccccc2)c(=O)c2cc(F)c(N3CCN(C)CC3)cc21`, which Potency is on record?
The Potency was inconclusive [inhibitor, partial curve, poor fit].

Which Potency does the source give for `Cc1ccc(C(=O)NC(=S)NNC(=O)COc2ccc([N+](=O)[O-])cc2)cc1` here?
Its Potency is inconclusive [inhibitor, single point].

With `COc1ccccc1N1CCN(CCCCOc2cccc3ccccc23)CC1` as the compound, how does the Potency read?
The Potency was active: 18.4 µM.

For `CCN(c1ccc(NC(=O)CSc2ccc3c(c2)OCCO3)cc1)C(C)C`, which Potency is on record?
The Potency was inconclusive [inhibitor, single point].

For `COc1cc2c(C(=O)N(C)c3cc(Cl)ccc3OC)cn(CC(C)C)c(=O)c2cc1OC`, which Potency is on record?
The Potency was active: 9.2 µM.

With `Cn1nc(C(C)(C)C)cc1C(=O)NNC(=O)c1cccc(Cl)c1` as the compound, how does the Potency read?
The Potency was inconclusive [inhibitor, single point].

Which Potency does the source give for `COc1cccc(Nc2nnc(SCn3nnc4ccccc4c3=O)s2)c1` here?
Its Potency is inconclusive [inhibitor, partial curve].

For `Cc1ccc2nc(C3CCCCC3)c(Cc3cccc(Cl)c3)n2c1`, which Potency is on record?
Its Potency is inconclusive [inhibitor, single point].

Which Potency does the source give for `COC(=O)c1ccc(NC(=O)Nc2ccc(F)cc2)cc1` here?
Its Potency is active: 18.4 µM.

Which Potency does the source give for `NC(=O)COC(=O)/C=C/c1ccc2ccccc2n1` here?
Its Potency is inconclusive [inhibitor, single point].

Which Potency does the source give for `CC(=O)c1c(O)cc(O)c(C(C)=O)c1O` here?
Its Potency is active: 20.6 µM.

For `Cc1cc(Oc2ccc(=O)n(C)n2)nc(SCc2ccccc2)n1`, which “activity change, negative = growth inhibition” value is on record?
The value was inactive: -12%.

For `O=C(CSC1=N/C(=C/c2ccco2)C(=O)N1c1ccc(OC(F)F)cc1)NC1CCS(=O)(=O)C1` (centres undefined), which “activity change, negative = growth inhibition” value is on record?
The value was inactive: 0.74%.

With `O=C(CN1CCCCC1)Nc1nc(-c2ccc(F)c(F)c2)cs1` as the compound, how does the Potency read?
The Potency was inconclusive [inhibitor, partial curve, poor fit].

Which Potency does the source give for `CCOc1ccc2c(c1)C(C)=CC(C)(C)N2S(=O)(=O)c1ccc(C)cc1` here?
Its Potency is inconclusive [inhibitor, single point].

Which Potency does the source give for `COc1ccc(C(CNC(=O)c2cccc(NS(=O)(=O)c3ccc(C)c(F)c3)c2)N2CCOCC2)cc1` (centres undefined) here?
Its Potency is inconclusive [inhibitor, single point].

With `CC[n+]1ccccc1/C=C1\Sc2ccc(C)cc2N1C` as the compound, how does the Potency read?
The Potency was active: 0.461 µM.

Which “activity change, negative = growth inhibition” value does the source give for `CC1CCN(CCC(=O)Nc2ccc(Cl)cc2)CC1` here?
Its value is inactive: 4.22%.

For `CC(=O)Nc1ccc(C2=CC(=O)C[C@H](c3ccc(Cl)cc3)C2)cc1`, which Potency is on record?
The Potency was active: 18.4 µM.

Which Potency does the source give for `CCN(Cc1cnn(C)c1)C(=O)c1cc(COc2cc(C)c(Cl)c(C)c2)on1` here?
The Potency was inconclusive [inhibitor, single point].

For `C[n+]1ccn(CC(=O)c2cc(C(C)(C)C)c(O)c(C(C)(C)C)c2)c1`, which Potency is on record?
Its Potency is inconclusive [inhibitor, partial curve, poor fit].

Which Potency does the source give for `Fc1ccccc1N1CCN(C(c2ccncc2)c2nnnn2C2CCCC2)CC1` (centres undefined) here?
The Potency was inconclusive [inhibitor, single point].
